Test results published in the supplement of paper PMC9151546.
Single values are uncertain, as repeats are few or missing.

How the values were obtained:
CHO-K1 [1] = assay: micronucleus frequency (% of nucleated events); higher = more micronuclei (genotoxic)
CHO-K1 [2] = assay: hypodiploid nuclei frequency (% of nucleated events); higher = more hypodiploid events (aneugenic)
CHO-K1 [3] = assay: relative survival (nuclei to bead ratio vs DMSO control) (% of vehicle control); higher = more surviving cells
Method: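 Flow-cytometric in vitro micronucleus assay (Litron MicroFlow) in CHO-K1 cells in 96-well plates, 19 concentrations (4.5-200 µM, n=1 per concentration). Without S9, cells were exposed for 24 h and sampled at 48 h. With Aroclor 1254-induced rat liver S9, cells were exposed for 3-4 h and sampled at 27-28 h. Read-outs are %MN and %hypodiploid nuclei relative to nucleated events, and relative survival as the nuclei-to-bead ratio versus the 1% DMSO vehicle control (x100).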
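Throughout, for hypodiploid nuclei frequency (% of nucleated events): hypodiploid nuclei gated on a flow cytometer with 488 nm excitation after SYTOX Green staining, cultures at 37 °C, positive controls vinblastine without S9 and cyclophosphamide with S9.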
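Throughout, for micronucleus frequency (% of nucleated events): cells lysed with nuclei stained by SYTOX Green, then micronucleus-gated events counted against nucleated events by flow cytometry with 488 nm excitation.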
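Throughout, for relative survival (nuclei to bead ratio vs DMSO control): Lysed-cell nuclei stained with SYTOX Green and counted against counting beads by flow cytometry at 488 nm excitation, with vinblastine (no S9) and cyclophosphamide (plus S9) as positive controls.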

Oc1cc(Cl)c(Cl)cc1Cl [2,4,5-Trichlorophenol]
Conditions | hypodiploid nuclei frequency, CHO-K1 [2] [%] | micronucleus frequency, CHO-K1 [1] [%] | relative survival, CHO-K1 [3]
concentration: 4.5 (µM), S9 metabolic activation: with S9, exposure time: 3-4 hours | 0.26 | 1.38 | 100
concentration: 4.5 (µM), S9 metabolic activation: without S9, exposure time: 24 hours | 0.44 | 1.12 | 85
concentration: 5.63 (µM), S9 metabolic activation: with S9, exposure time: 3-4 hours | 0.2 | 1.16 | 94.7
concentration: 5.63 (µM), S9 metabolic activation: without S9, exposure time: 24 hours | 0.48 | 1.06 | 109
concentration: 7.04 (µM), S9 metabolic activation: with S9, exposure time: 3-4 hours | 0.18 | 1.58 | 97.1
concentration: 7.04 (µM), S9 metabolic activation: without S9, exposure time: 24 hours | 0.48 | 1.5 | 90
concentration: 8.8 (µM), S9 metabolic activation: with S9, exposure time: 3-4 hours | 0.4 | 1.98 | 106
concentration: 8.8 (µM), S9 metabolic activation: without S9, exposure time: 24 hours | 0.44 | 1.28 | 113
concentration: 11 (µM), S9 metabolic activation: with S9, exposure time: 3-4 hours | 0.38 | 1.64 | 106
concentration: 11 (µM), S9 metabolic activation: without S9, exposure time: 24 hours | 0.64 | 1.34 | 89.1
concentration: 13.7 (µM), S9 metabolic activation: with S9, exposure time: 3-4 hours | 0.46 | 1.1 | 108
concentration: 13.7 (µM), S9 metabolic activation: without S9, exposure time: 24 hours | 0.36 | 0.98 | 88.1
concentration: 17.2 (µM), S9 metabolic activation: with S9, exposure time: 3-4 hours | 0.46 | 3.64 | 83.3
concentration: 17.2 (µM), S9 metabolic activation: without S9, exposure time: 24 hours | 0.56 | 1.16 | 104
concentration: 21.5 (µM), S9 metabolic activation: with S9, exposure time: 3-4 hours | 0.44 | 4.14 | 70.9
concentration: 21.5 (µM), S9 metabolic activation: without S9, exposure time: 24 hours | 0.54 | 1.08 | 103
concentration: 26.8 (µM), S9 metabolic activation: with S9, exposure time: 3-4 hours | 0.32 | 2.7 | 57.6
concentration: 26.8 (µM), S9 metabolic activation: without S9, exposure time: 24 hours | 0.68 | 1.78 | 91
concentration: 33.6 (µM), S9 metabolic activation: with S9, exposure time: 3-4 hours | 0.36 | 3.1 | 52.9
concentration: 33.6 (µM), S9 metabolic activation: without S9, exposure time: 24 hours | 0.78 | 1.58 | 87.7
concentration: 41.9 (µM), S9 metabolic activation: with S9, exposure time: 3-4 hours | 0.24 | 2.4 | 44.3
concentration: 41.9 (µM), S9 metabolic activation: without S9, exposure time: 24 hours | 0.64 | 1.2 | 84.5
concentration: 52.4 (µM), S9 metabolic activation: with S9, exposure time: 3-4 hours | 0.38 | 2.88 | 42.8
concentration: 52.4 (µM), S9 metabolic activation: without S9, exposure time: 24 hours | 0.92 | 1.26 | 63.6
concentration: 65.5 (µM), S9 metabolic activation: with S9, exposure time: 3-4 hours | 0.56 | 3.04 | 51.4
concentration: 65.5 (µM), S9 metabolic activation: without S9, exposure time: 24 hours | 1.28 | 1.3 | 47.9
concentration: 81.9 (µM), S9 metabolic activation: with S9, exposure time: 3-4 hours | 0.32 | 3.9 | 51.5
concentration: 81.9 (µM), S9 metabolic activation: without S9, exposure time: 24 hours | – | – | 36.6
concentration: 102 (µM), S9 metabolic activation: with S9, exposure time: 3-4 hours | 0.18 | 3.64 | 49.9
concentration: 102 (µM), S9 metabolic activation: without S9, exposure time: 24 hours | – | – | 39.2
concentration: 128 (µM), S9 metabolic activation: with S9, exposure time: 3-4 hours | 0.38 | 4.04 | 53.1
concentration: 128 (µM), S9 metabolic activation: without S9, exposure time: 24 hours | – | – | 34.6
concentration: 160 (µM), S9 metabolic activation: with S9, exposure time: 3-4 hours | 0.38 | 3.68 | 55.2
concentration: 160 (µM), S9 metabolic activation: without S9, exposure time: 24 hours | – | – | 33.9
concentration: 200 (µM), S9 metabolic activation: with S9, exposure time: 3-4 hours | 0.38 | 3.46 | 54.4
concentration: 200 (µM), S9 metabolic activation: without S9, exposure time: 24 hours | – | – | 33.4

COC(=O)c1ccccc1N [Methyl 2-aminobenzoate]
Conditions | hypodiploid nuclei frequency, CHO-K1 [2] [%] | micronucleus frequency, CHO-K1 [1] [%] | relative survival, CHO-K1 [3]
concentration: 4.5 (µM), S9 metabolic activation: with S9, exposure time: 3-4 hours | 0.4 | 1.32 | 121
concentration: 4.5 (µM), S9 metabolic activation: without S9, exposure time: 24 hours | 0.96 | 1.16 | 112
concentration: 5.63 (µM), S9 metabolic activation: with S9, exposure time: 3-4 hours | 0.28 | 1.16 | 111
concentration: 5.63 (µM), S9 metabolic activation: without S9, exposure time: 24 hours | 0.84 | 0.94 | 125
concentration: 7.04 (µM), S9 metabolic activation: with S9, exposure time: 3-4 hours | 0.12 | 0.76 | 128
concentration: 7.04 (µM), S9 metabolic activation: without S9, exposure time: 24 hours | 0.52 | 1.18 | 126
concentration: 8.8 (µM), S9 metabolic activation: with S9, exposure time: 3-4 hours | 0.16 | 0.82 | 129
concentration: 8.8 (µM), S9 metabolic activation: without S9, exposure time: 24 hours | 0.82 | 1.3 | 105
concentration: 11 (µM), S9 metabolic activation: with S9, exposure time: 3-4 hours | 0.2 | 0.76 | 110
concentration: 11 (µM), S9 metabolic activation: without S9, exposure time: 24 hours | 0.76 | 1.48 | 120
concentration: 13.7 (µM), S9 metabolic activation: with S9, exposure time: 3-4 hours | 0.24 | 0.66 | 119
concentration: 13.7 (µM), S9 metabolic activation: without S9, exposure time: 24 hours | 0.84 | 1.14 | 99.7
concentration: 17.2 (µM), S9 metabolic activation: with S9, exposure time: 3-4 hours | 0.24 | 0.84 | 118
concentration: 17.2 (µM), S9 metabolic activation: without S9, exposure time: 24 hours | 0.52 | 1.14 | 112
concentration: 21.5 (µM), S9 metabolic activation: with S9, exposure time: 3-4 hours | 0.12 | 0.94 | 102
concentration: 21.5 (µM), S9 metabolic activation: without S9, exposure time: 24 hours | 0.74 | 1.66 | 88.4
concentration: 26.8 (µM), S9 metabolic activation: with S9, exposure time: 3-4 hours | 0.18 | 0.88 | 155
concentration: 26.8 (µM), S9 metabolic activation: without S9, exposure time: 24 hours | 1.2 | 0.92 | 97.6
concentration: 33.6 (µM), S9 metabolic activation: with S9, exposure time: 3-4 hours | 0.3 | 0.88 | 159
concentration: 33.6 (µM), S9 metabolic activation: without S9, exposure time: 24 hours | 1.22 | 1.34 | 105
concentration: 41.9 (µM), S9 metabolic activation: with S9, exposure time: 3-4 hours | 0.1 | 0.98 | 124
concentration: 41.9 (µM), S9 metabolic activation: without S9, exposure time: 24 hours | 1.08 | 1.32 | 89.3
concentration: 52.4 (µM), S9 metabolic activation: with S9, exposure time: 3-4 hours | 0.14 | 0.7 | 118
concentration: 52.4 (µM), S9 metabolic activation: without S9, exposure time: 24 hours | 0.82 | 1.06 | 116
concentration: 65.5 (µM), S9 metabolic activation: with S9, exposure time: 3-4 hours | 0.26 | 1.3 | 105
concentration: 65.5 (µM), S9 metabolic activation: without S9, exposure time: 24 hours | 0.92 | 1.6 | 102
concentration: 81.9 (µM), S9 metabolic activation: with S9, exposure time: 3-4 hours | 0.14 | 0.98 | 115
concentration: 81.9 (µM), S9 metabolic activation: without S9, exposure time: 24 hours | 1.24 | 1.72 | 99
concentration: 102 (µM), S9 metabolic activation: with S9, exposure time: 3-4 hours | 0.32 | 1.24 | 127
concentration: 102 (µM), S9 metabolic activation: without S9, exposure time: 24 hours | 1.12 | 2.38 | 114
concentration: 128 (µM), S9 metabolic activation: with S9, exposure time: 3-4 hours | 0.16 | 1.08 | 110
concentration: 128 (µM), S9 metabolic activation: without S9, exposure time: 24 hours | 1.16 | 1.32 | 97.6
concentration: 160 (µM), S9 metabolic activation: with S9, exposure time: 3-4 hours | 0.46 | 1.38 | 85.7
concentration: 160 (µM), S9 metabolic activation: without S9, exposure time: 24 hours | 1.4 | 1.74 | 87.3
concentration: 200 (µM), S9 metabolic activation: with S9, exposure time: 3-4 hours | 0.39 | 1.71 | 63.5
concentration: 200 (µM), S9 metabolic activation: without S9, exposure time: 24 hours | 1.62 | 1.62 | 75.1
